PMC4336329 (PLoS ONE, 2015)
Hit rate of the full screen: of about 310,000 compounds, about 14,000 (4.5%) showed an effect of 50% or more. Effects have a minus sign here. Some of the results follow.
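Also: peak tail current of the secondary pulse compared with the same well before compound.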

The molecules below were run against human ether-à-go-go-related gene (hERG) potassium channel (human, UniProt Q12809) (assay: primary screen, population patch clamp on CHO cells stably expressing hERG).
human ether-à-go-go-related gene (hERG) potassium channel, sequence (Q12809 whole entry, looked up): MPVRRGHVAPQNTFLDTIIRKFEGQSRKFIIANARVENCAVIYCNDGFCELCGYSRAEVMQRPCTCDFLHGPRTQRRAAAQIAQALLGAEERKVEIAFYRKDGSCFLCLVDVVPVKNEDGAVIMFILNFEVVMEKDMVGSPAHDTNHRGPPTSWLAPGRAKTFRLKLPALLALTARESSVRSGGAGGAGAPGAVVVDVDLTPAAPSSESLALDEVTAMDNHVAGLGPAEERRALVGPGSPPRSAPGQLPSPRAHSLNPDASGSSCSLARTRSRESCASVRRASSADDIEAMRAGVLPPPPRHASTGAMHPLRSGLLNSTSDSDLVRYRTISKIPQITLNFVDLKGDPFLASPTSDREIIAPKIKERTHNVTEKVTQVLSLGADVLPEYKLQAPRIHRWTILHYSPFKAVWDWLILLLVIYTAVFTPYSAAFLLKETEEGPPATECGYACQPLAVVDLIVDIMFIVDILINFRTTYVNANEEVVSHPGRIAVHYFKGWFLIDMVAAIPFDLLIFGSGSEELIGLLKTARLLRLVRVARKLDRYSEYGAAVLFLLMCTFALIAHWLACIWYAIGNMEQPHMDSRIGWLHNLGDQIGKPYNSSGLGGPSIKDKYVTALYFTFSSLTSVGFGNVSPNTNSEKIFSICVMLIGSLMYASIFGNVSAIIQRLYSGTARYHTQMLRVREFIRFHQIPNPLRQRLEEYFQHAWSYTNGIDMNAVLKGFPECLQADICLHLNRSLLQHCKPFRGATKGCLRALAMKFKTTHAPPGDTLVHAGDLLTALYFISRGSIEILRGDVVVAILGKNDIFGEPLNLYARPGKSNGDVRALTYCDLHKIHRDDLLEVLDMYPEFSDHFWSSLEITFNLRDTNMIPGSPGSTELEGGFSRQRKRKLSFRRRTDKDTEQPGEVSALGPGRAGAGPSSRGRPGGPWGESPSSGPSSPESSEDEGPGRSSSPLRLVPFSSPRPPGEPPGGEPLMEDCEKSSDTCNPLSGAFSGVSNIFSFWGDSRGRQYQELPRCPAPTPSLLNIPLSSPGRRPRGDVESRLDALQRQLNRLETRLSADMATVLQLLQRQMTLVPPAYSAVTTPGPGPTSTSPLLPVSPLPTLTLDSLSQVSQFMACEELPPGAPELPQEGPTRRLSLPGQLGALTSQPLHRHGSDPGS
`CCOC(=O)C1=C(C)NC(=O)NC1c1ccc(C)o1` (stereo not shown) was tested, and the “hERG current change (%, negative = inhibition) at 10uM” value was 9.83%.
In the case of `CC1Cc2ccccc2N1C(=O)Cc1cccs1` (stereo not shown), the “hERG current change (%, negative = inhibition) at 10uM” value is reported as 6.94%.
`COC(=O)C1CCN(C(=O)/C=C/c2ccccc2)CC1` was tested, and the “hERG current change (%, negative = inhibition) at 10uM” value was 4.21%.
In the case of `CC(C)C(NC(=O)c1ccc2c(c1)OCO2)C(=O)N/N=C/c1cccs1` (stereo not shown), the “hERG current change (%, negative = inhibition) at 10uM” value is reported as 15.8%.
In the case of `CCOC(=O)c1nn(-c2ccc3ccccc3c2)cc1O`, the “hERG current change (%, negative = inhibition) at 10uM” value is reported as 1.92%.
For `COCCn1c(Cc2ccccc2)nnc1SCC(=O)Nc1cc(C)on1`, the “hERG current change (%, negative = inhibition) at 10uM” value was -5.36%.
`O=C(Nc1ncc(S(=O)(=O)c2ccc([N+](=O)[O-])cc2)s1)c1ccccc1F` was tested, and the “hERG current change (%, negative = inhibition) at 10uM” value was 14.9%.
With `Cc1ccc(-c2csc(NC(=O)C[n+]3cc(-c4ccccc4)n4c3CCC4)n2)cc1.[Cl-]` the “hERG current change (%, negative = inhibition) at 10uM” value was -57%.
In the case of `CC(=O)OCC(CCn1cnc2cnc(N)nc21)COC(C)=O`, the “hERG current change (%, negative = inhibition) at 10uM” value is reported as 10.5%.
In the case of `CCOC(=O)c1cnn(-c2ccc(F)cc2)c1N`, the “hERG current change (%, negative = inhibition) at 10uM” value is reported as 0.583%.
In the case of `CNCCCOc1cccc(OC(C)C)c1.O=C(O)C(=O)O`, the “hERG current change (%, negative = inhibition) at 10uM” value is reported as 4.63%.
`O=C(N/N=C/c1ccc2c(c1)OCO2)c1cc(-c2ccc(F)cc2)nc2ccccc12` was tested, and the “hERG current change (%, negative = inhibition) at 10uM” value was 20%.
`O=C(N/N=C/c1ccco1)c1ccc(NC(=O)c2ccccc2Cl)cc1` was tested, and the “hERG current change (%, negative = inhibition) at 10uM” value was 13.1%.
For `CSc1ccc(/C=C(/NC(=O)c2ccco2)C(=O)N2CCOCC2)cc1`, the “hERG current change (%, negative = inhibition) at 10uM” value was -3.69%.
With `CCc1ccc(NC(=O)CCNS(=O)(=O)c2cccs2)cc1` the “hERG current change (%, negative = inhibition) at 10uM” value was 7.74%.
`CCN(CC)CC(C(=O)N(CC)CC)P(=O)(c1ccccc1)c1ccccc1` (stereo not shown) was tested, and the “hERG current change (%, negative = inhibition) at 10uM” value was 14.2%.
In the case of `O=C(CSc1ccc(-c2ccccn2)nn1)NC1CCCC1`, the “hERG current change (%, negative = inhibition) at 10uM” value is reported as -4.02%.
With `CC(=O)Nc1ccc(C(=O)OCC(=O)NC(=O)NC2CCCCC2)cc1` the “hERG current change (%, negative = inhibition) at 10uM” value was -0.454%.
`Cc1c(C(=O)N2CCc3ccccc3C2)oc2ccc(Br)cc12` was tested, and the “hERG current change (%, negative = inhibition) at 10uM” value was -4.02%.
In the case of `Cc1noc(C)c1COC(=O)CCc1nc2ccccc2c(=O)[nH]1`, the “hERG current change (%, negative = inhibition) at 10uM” value is reported as 6.21%.
`C/C(=N\Nc1nc2ccccc2c(=O)n1O)c1ccco1` was tested, and the “hERG current change (%, negative = inhibition) at 10uM” value was 17.9%.
`CCc1ccc2c(Cl)c(C(=O)N/N=C/c3c[nH]c4ccccc34)sc2c1` was tested, and the “hERG current change (%, negative = inhibition) at 10uM” value was 2.9%.
For `COc1ccc(/C=C/C(=O)OCC(=O)N2CC(=O)Nc3ccccc32)cc1S(=O)(=O)N1CCOCC1`, the “hERG current change (%, negative = inhibition) at 10uM” value was -2.6%.
For `c1ccc(CCc2ccccc2-c2nc(-c3cccnc3)no2)cc1`, the “hERG current change (%, negative = inhibition) at 10uM” value was 2.1%.
In the case of `COCCCNS(=O)(=O)c1ccc2[nH]c3c(c2c1)CCCCC3`, the “hERG current change (%, negative = inhibition) at 10uM” value is reported as -5.24%.
